Test results reported in publication PMC12136788.
Some of the results follow.

B1: 13078290_13078410_1514_3pUTR_ENSMUSG00000030386_ENSMUST00000098822|mouse|control|control (ssRNA)
RNA: GGGAGUUCUACAGUCCGACGAUCUGCCAAUUUUUUGAUGUUCCAUAAAAGAUGAGAAAUAAAAGAUAUUCUCAUAUUCCUUAUAUUUCUCAUACUGGUUUCCUCCAAUUUGAAGUUUGGGGUAUUCAAUAAGUGAUGGGCUCUCAACAGAGGAUUGAGCAUCA
B2: 2404117_2406024_1226_CDS_ENSG00000106263_ENST00000360876|human|control|control (ssRNA)
RNA: GGGAGUUCUACAGUCCGACGAUCAAGGAUGUCCCAGAUGAUUAUGGCCUGAGGGUCAUCCUGCGUGUCCAUCAGGGGGCUAAAGGUCACCAGGUACCUUUCACAAGGUGAGAAGUCAAUAAGCUGAACCCCUUGGUGGCUGAACAACAGAGGAUUGAGCAUCA
B3: 57920494_57920614_1982_CDS_ENSG00000166987_ENST00000355673|human|control|control (ssRNA)
RNA: GGGAGUUCUACAGUCCGACGAUCACCAAAUAAACUGUGGUUGAGCAAUGGAGAAGGUGGAGGCUGCCCCAGACUCAGAGGGAGAGGCAAGGCCCCAAGCAUCCCAGGGAAGCCAGCUCCACUCAGUGCCAGGCCCUGCUCAGGCAACAGAGGAUUGAGCAUCA
B4: chr9:14812383:14812384:-_ENSMUSG00000031934_ENSMUST00000164273|mus_mus|mus_mus_mus_hu_True|78_88 (ssRNA)
RNA: GGGAGUUCUACAGUCCGACGAUCAUAGCCCAGGUAGAUACACGCUAACAGUAUAACCACAAAUGUCAGCAGGCGGCAGCUAAUGUACUUGAUGAUUAAAUUAUUAGAAUUUUUCUUUGUCUUCAAGUACUGCUCCACAAUUGGCAACAGAGGAUUGAGCAUCA
B5: 174000252_174001610_1256_CDS_ENSMUSG00000003458_ENSMUST00000003550|mouse|control|control (ssRNA)
RNA: GGGAGUUCUACAGUCCGACGAUCCUCCAGAGUGGCCAGAAGAUCCUCCACCUGGUUUUUCACAGACUCAUUUUUCUGAGACAUGGGAUCUGUGUGCAUCCAGAGAUCUAGUGAAGUUCUUAGGGCCACCUGUCCCAGCUCCACCAACAGAGGAUUGAGCAUCA
B6: chr3:176740097:176740098:-_ENSG00000177565_ENST00000430069|hu_mus|FALSE|FALSE (ssRNA)
RNA: GGGAGUUCUACAGUCCGACGAUCUGUUUUGUAUACCACAAAAGGAGGCACUUUCAGUAUCUGCAAAAGGUGUUUAGUCCUAAAACAUACUCACCUAGAGGAUAACUCAGGAAAACAAUCUGUUACACUCUAAGACCUACUCCACAACAGAGGAUUGAGCAUCA
B7: chr10:126663389:126663390:-_ENSMUSG00000074657_ENSMUST00000099172|mus_mus|FALSE|FALSE (ssRNA)
RNA: GGGAGUUCUACAGUCCGACGAUCGGGCUAUCUCAGGACCCUCCAAUGAAUGAAGCAUUUUCCACUGUGAGGGGGUAUGAAAAGAAAGAAAUUAUAACAAACGUUCCUCGCUCUGAAUUACUUUACCAUUUUGGUUGUUUCGUGCAACAGAGGAUUGAGCAUCA
B8: chr19:34925787:34925788:+_ENSG00000126261_ENST00000246548|perfect_dup|motif|central (ssRNA)
RNA: GGGAGUUCUACAGUCCGACGAUCGAGAUACCCAGCAGUCCCGCUCUCAAUGAGAGGCACAUCAGCGGCCAGACACAUCCGGUUCACGUGGUUUCGUGCAGCUCUGUUAUCUAAUGCAUUCAUGACCAAUAUAAACUGUCGAAACAACAGAGGAUUGAGCAUCA
B9: 167391948_167392068_9331_3pUTR_ENSG00000143190_ENST00000367866|human|control|control (ssRNA)
RNA: GGGAGUUCUACAGUCCGACGAUCUUCCAAAUUUUGGCUUUUUGCUCCUAUUCCCUCUGCCUGUUUUGAAAACUUAAGGAUAAGCAAUGACAUUAGCAGUGUCUUUGGUAUCUAAACCAAAUCCCACUUAAGUUCUGUGGGAUCCAACAGAGGAUUGAGCAUCA
B10: 8928483_8928603_414_3pUTR_ENSMUSG00000020585_ENSMUST00000020909|mouse|control|control (ssRNA)
RNA: GGGAGUUCUACAGUCCGACGAUCGGUAACUCGGUAAUUCACCGUCUCCCAGACGAGCUCCGCAAGGAGGAGAAGGGUGAAACAAGACGGAGUUGGUGGCAGACAGCGGGCACGGAGAUUUUUGGCGCUGUCUUUCGCCACGUUCAACAGAGGAUUGAGCAUCA
B11: chr6:135286264:135286265:-_ENSG00000112339_ENST00000367826|hu_mus|FALSE|FALSE (ssRNA)
RNA: GGGAGUUCUACAGUCCGACGAUCCUCUGGCAGCUGGCAACUGGGAAGUUUUGCAGAGUAAUCCUUAAUACUUGUUGGCAGCUAACUGUACUUUAGUGUCUCUCAUCUAACAAUCAUGACUGCAUGCUGUUUCCUUAGCUGCACCAACAGAGGAUUGAGCAUCA
B12: chr6:30403744:30403745:+_ENSMUSG00000029775_ENSMUST00000068259|mus_mus|FALSE|FALSE (ssRNA)
RNA: GGGAGUUCUACAGUCCGACGAUCAGGAGAAGGCUAAACACUGAUUAUCUAUGGAUUUCGAUUGUGUGUGCUUUCACCUUGCUACAGUGGAUAACGAAAGAUCAGUCAUACUUUUAAUCUAGAAAUGUUAAUAUUUUCAUCAUACAACAGAGGAUUGAGCAUCA
B13: chr2:179515052:179515053:+_ENSMUSG00000000305_ENSMUST00000000314|mus_hu|mus_mus_mus_hu_False|28_78 (ssRNA)
RNA: GGGAGUUCUACAGUCCGACGAUCGCUGUCCCAUGCAGUCACCGUGAACGCCACCUGCUCUGAGGGGACCUGCAGCUCCCGGGUGGCGAAGACUGUCCCAUCUGCCCCGACUUUGAAGUCCAUGCUGUUGGUCUCAUAUUGUGUCAACAGAGGAUUGAGCAUCA
B14: chr17:60770872:60770873:+_ENSG00000011028_ENST00000303375|hu_hu|hu_hu_hu_mus_True|18_28 (ssRNA)
RNA: GGGAGUUCUACAGUCCGACGAUCUCUUUAAAAAAAAAAAAAAAAAGACAAACAAUAAUAGCACAUUUCGAGAAUCAAGAACUACAAUAGAGGGUCCGCUUUGAGUUGUCCAUGUUCACAUUGUCCCCUGGGACACGGGGACUGCAACAGAGGAUUGAGCAUCA
B15: chr1:110565788:110565789:+_ENSG00000168710_ENST00000369799|hu_hu|motif|central (ssRNA)
RNA: GGGAGUUCUACAGUCCGACGAUCCUUCUAUUUUUGUUUUUAAUGUCUGUCUCUCUGAUCAGUGGAAAAGUGAAAAUUUCGGGUAUCGGGCACUAACGUAUGACCCAACUUUGAGGGAUCACAAGCUAGAACAAGUUGAGGAUUCAACAGAGGAUUGAGCAUCA
B16: chr2:47389482:47389483:-_ENSG00000143933_ENST00000272298|hu_mus|motif|central (ssRNA)
RNA: GGGAGUUCUACAGUCCGACGAUCCUCUGCUGCACUAAUAUAGCCAUUGCCAUCCUUAUCAAACACACGGAAUGCUUCUCGGAUCUCUUCUUCACUGUCUGUGUCUUUCAUUUUUCUUGCCAUCAUUGUCAGAAAUUCAGGGAACAACAGAGGAUUGAGCAUCA
B17: chr11:76780297:76780298:+_ENSMUSG00000020840_ENSMUST00000021197|mus_hu|FALSE|FALSE (ssRNA)
RNA: GGGAGUUCUACAGUCCGACGAUCGAAGUCAAUGGGCUGGUUGUUGUAUAGAGUUUUUCUCCCUCCAACCAUAUUGCUUAAGUAUUCCACUGUGUAAAGUUUGUUGUACUUGUGCUGGGGCCUAGGGUCAUUCACUAAACAAAUCAACAGAGGAUUGAGCAUCA
B18: chr19:16406628:16406629:+_ENSMUSG00000024639_ENSMUST00000025541|mus_mus|FALSE|FALSE (ssRNA)
RNA: GGGAGUUCUACAGUCCGACGAUCGACACUUUGUAAGUCAAAGGGGUAUUCGAUGAUCCCUGUAGUGGGGACUCGAACUCUAAGCACGUCUUGUUGUGUAGGCAGAUAGGAAGGGUCGGCUACACGGUCCAAGUCAUUCAGAUACAACAGAGGAUUGAGCAUCA
B19: chr18:34367003:34367004:-_ENSG00000134779_ENST00000590842|hu_hu|FALSE|FALSE (ssRNA)
RNA: GGGAGUUCUACAGUCCGACGAUCCCUCAGCUCCCAUUGGAGGGGCUCAACAGCCAGUUUCCAGUGAACACAUUUUCUUCUAUUCAUUUUGAUAUUAUAAGUUAUCUUGGCCUGUGGGCUAAUGCCAUAGCUGGUGAAGGCAUACAACAGAGGAUUGAGCAUCA
B20: chr1:151373259:151373260:+_ENSG00000159377_ENST00000290541|hu_mus|FALSE|FALSE (ssRNA)
RNA: GGGAGUUCUACAGUCCGACGAUCCAAGUAUGCACCAUAACCAGUGGCCAGUGAAGGGGCUUCAUAAGCUACACCAAGCAUGUCCACAUAACCGAGGAAGCUUUCUCCGUCAGCAUAGCCUCCAAUGACCAUGGUGUUCCACAGCAACAGAGGAUUGAGCAUCA
B21: chr7:52357369:52357370:-_ENSMUSG00000003420_ENSMUST00000003512|mus_hu|FALSE|FALSE (ssRNA)
RNA: GGGAGUUCUACAGUCCGACGAUCGUGCUCCCGCAGGCGGUGCGGGCAGGAGAAUAGCAGGAAGGUGAGCUCCUUGUUGGCCGCCUUGUCCUGCUGCUGCCACCGCUGACUGAUAGCCAGGGCCUCGGGCCAGUCCCCACCCCACAACAGAGGAUUGAGCAUCA
B22: chr13:100193941:100193942:-_ENSMUSG00000052727_ENSMUST00000064762|mus_mus|FALSE|FALSE (ssRNA)
RNA: GGGAGUUCUACAGUCCGACGAUCUGUCUGAACUCUCUACAUGGUCAACAUAGAAGUUGAGAAUUCAUUUGUUUUCAAUCUAUUACUUCUCUCACUGAAUGUUUUCCAGGAAAAACAAAAACAAAAAACCAACCCAAGCAAACUCAACAGAGGAUUGAGCAUCA

The binders below were run against T1, UNK ZnF1-3 (human, UniProt Q9C0B0 31-174) (assay: nsRBNS (natural sequence RNA bind-n-seq); RBNS binding buffer (assumed for nsRBNS): 25 mM Tris pH 7.5, 150 mM KCl, 3 mM MgCl2, 0.01% Triton X-100, 500 ug/ml BSA, 20 U/ml SUPERase-In, 4 C; UNK is unkempt and MSI1 is Musashi-1; names of the RNAs are library labels; protein concentration not given here; high values mean tight binding).
T1 sequence: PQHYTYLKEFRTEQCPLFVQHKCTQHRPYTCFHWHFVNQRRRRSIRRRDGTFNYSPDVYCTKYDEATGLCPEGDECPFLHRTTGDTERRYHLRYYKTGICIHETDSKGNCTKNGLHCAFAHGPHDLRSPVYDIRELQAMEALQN

Row | Binder | binding signal
1 | B1 | 0.559 enrichment R
2 | B2 | 0.527 enrichment R
3 | B3 | 1.7 enrichment R
4 | B4 | 1.57 enrichment R
5 | B5 | 0.581 enrichment R
6 | B6 | 0.816 enrichment R
7 | B7 | 1.04 enrichment R
8 | B8 | 0.496 enrichment R
9 | B9 | 0.838 enrichment R
10 | B10 | 0.903 enrichment R
11 | B11 | 0.795 enrichment R
12 | B12 | 0.727 enrichment R
13 | B13 | 0.68 enrichment R
14 | B14 | 2.74 enrichment R
15 | B15 | 1.93 enrichment R
16 | B16 | 0.83 enrichment R
17 | B17 | 0.66 enrichment R
18 | B18 | 0.648 enrichment R
19 | B19 | 1.23 enrichment R
20 | B20 | 1.05 enrichment R
21 | B21 | 0.754 enrichment R
22 | B22 | 1.12 enrichment R
